In a collection of fitness landscapes (doi:10.1126/science.1257360) one finds enrichment ratio data, which are given here for 195 variants.

Some of the results follow.

B1: PhoQ; a variant is named by its letters at X, in order, P23837 (parent)
chain: MKKLLRLFFPLSLRVRFLLATAAVVLVLSLAYGMVALIGYSVSFDKTTFRLLRGESNLFYTLAKWENNKLHVELPENIDKQSPTMTLIYDENGQLLWAQRDVPWLMKMIQPDWLKSNGFHEIEADVNDTSLLLSGDHSIQQQLQEVREDDDDAEMTHSVAVNVYPATSRMPKLTIVVVDTIPVELKSSYMVWSWFIYVLSANLLLVIPLLWVAAWWSLRPIEALAKEVRELEEHNRELLNPATTRELTSLVRNLNRLLKSERERYDKYRTTLTDLTHSLKTPLXXLQXXLRSLRSEKMSVSDAEPVMLEQISRISQQIGYYLHRASMRGGTLLSRELHPVAPLLDNLTSALNKVYQRKGVNISLDISPEISFVGEQNDFVEVMGNVLDNACKYCLEFVEISARQTDEHLYIVVEDDGPGIPLSKREVIFDRGQRVDTLRPGQGVGLAVAREITEQYEGKIVAGESMLGGARMEVIFGRQHSAPKDE

In this assay the parent is B1. Briefly: enrichment ratio after two sorts for PhoP signalling (ratio (wild type AVST 3.29)); higher = more functional. The conditions noted are these: with PhoP (E. coli).
With GNRA, the enrichment ratio is at most 0.25.

For HSTP, the enrichment ratio was at most 0.25.

Consider FFCN, for which the enrichment ratio is at most 0.25.

With HLSL, the enrichment ratio is 0.631.

Consider KAEI, for which the enrichment ratio is at most 0.25.

As for DFFG, the enrichment ratio was at most 0.25.

On to TQWI, for which the enrichment ratio came out at 1.91.

As to DWDN, the enrichment ratio was at most 0.25.

For DSHT, the enrichment ratio is at most 0.25.

For the variant PPHV, the enrichment ratio was at most 0.25.

With SVRM, the enrichment ratio was at most 0.25.

As for MGWS, the enrichment ratio was 3.38.

For the variant GVCC, the enrichment ratio was 1.17.

Consider WEVT, for which the enrichment ratio was at most 0.25.

As to AEFG, the enrichment ratio came out at 8.7.

As to IVKG, the enrichment ratio was at most 0.25.

RVPE: the enrichment ratio was at most 0.25.

On to HHNM, for which the enrichment ratio was at most 0.25.

For the variant SEQG, the enrichment ratio was 17.8.

Take VKSS: the enrichment ratio was at most 0.25.

For VHCT, the enrichment ratio was at most 0.25.

Turning to DMPT, the enrichment ratio is at most 0.25.

IHYG: the enrichment ratio was at most 0.25.

LRHQ: the enrichment ratio was at most 0.25.

For WAFH, the enrichment ratio was at most 0.25.

In the case of KDEH, the enrichment ratio was at most 0.25.

Regarding KHGS, the enrichment ratio is at most 0.25.

As to LIPG, the enrichment ratio was at most 0.25.

For the variant WIFK, the enrichment ratio is at most 0.25.

As to PFKI, the enrichment ratio is at most 0.25.

Consider PLSK, for which the enrichment ratio is at most 0.25.

With NCDF, the enrichment ratio is at most 0.25.

On to YWRH, for which the enrichment ratio was at most 0.25.

As for PSTH, the enrichment ratio was at most 0.25.

For MVYK, the enrichment ratio is 17.6.

KRKE: the enrichment ratio was at most 0.25.

Turning to SCYG, the enrichment ratio is at most 0.25.

For WNGA, the enrichment ratio is at most 0.25.

Consider SFNE, for which the enrichment ratio is at most 0.25.

Turning to NTAM, the enrichment ratio was at most 0.25.

With FAGL, the enrichment ratio was at most 0.25.

Regarding IQFW, the enrichment ratio was at most 0.25.

Turning to MREG, the enrichment ratio is at most 0.25.

Turning to GTKY, the enrichment ratio was at most 0.25.

For DFWR, the enrichment ratio is at most 0.25.

Take KHSP: the enrichment ratio was at most 0.25.

Consider WWGN, for which the enrichment ratio is at most 0.25.

For TSNW, the enrichment ratio is at most 0.25.

As for QYRV, the enrichment ratio is at most 0.25.

With FCIP, the enrichment ratio was at most 0.25.

Turning to LFDQ, the enrichment ratio is at most 0.25.

THML: the enrichment ratio turned out to be 12.8.

For SVQM, the enrichment ratio was determined as 1.05.

For PLCI, the enrichment ratio is at most 0.25.

In the case of VGSK, the enrichment ratio is at most 0.25.

AMHN: the enrichment ratio is at most 0.25.

On to TPRQ, for which the enrichment ratio is at most 0.25.

Regarding RYPH, the enrichment ratio is at most 0.25.

For ESCM, the enrichment ratio is at most 0.25.

With YSHD, the enrichment ratio was at most 0.25.

As to MLGT, the enrichment ratio was at most 0.25.

In the case of FNYQ, the enrichment ratio was at most 0.25.

For the variant RRPH, the enrichment ratio is at most 0.25.

WQSC: the enrichment ratio was at most 0.25.

Turning to NYLM, the enrichment ratio was at most 0.25.

For TYGG, the enrichment ratio is at most 0.25.

For the variant RWVE, the enrichment ratio is at most 0.25.

On to MATD, for which the enrichment ratio is at most 0.25.

As to SPPR, the enrichment ratio was at most 0.25.

With IIPH, the enrichment ratio is at most 0.25.

As to VTIP, the enrichment ratio was at most 0.25.

For the variant YCAV, the enrichment ratio was at most 0.25.

As to ELLC, the enrichment ratio was at most 0.25.

As for LLLH, the enrichment ratio is at most 0.25.

As to QHQF, the enrichment ratio was at most 0.25.

Turning to TKIR, the enrichment ratio is at most 0.25.

Consider EDMN, for which the enrichment ratio is at most 0.25.

Turning to PWTK, the enrichment ratio was at most 0.25.

Consider HSMH, for which the enrichment ratio was at most 0.25.

As for YCCW, the enrichment ratio was at most 0.25.

Turning to IVTL, the enrichment ratio was at most 0.25.

Take PLCC: the enrichment ratio was at most 0.25.

As for LRSH, the enrichment ratio was at most 0.25.

On to KIRK, for which the enrichment ratio was at most 0.25.

Consider EYQT, for which the enrichment ratio is at most 0.25.

Regarding IHNP, the enrichment ratio is at most 0.25.

As for SMIF, the enrichment ratio was at most 0.25.

As for RAFE, the enrichment ratio was at most 0.25.

Consider DQLI, for which the enrichment ratio is at most 0.25.

For DIGN, the enrichment ratio was at most 0.25.

With GFKF, the enrichment ratio is at most 0.25.

In the case of YRWW, the enrichment ratio was at most 0.25.

MEVL: the enrichment ratio was found to be 11.6.

APWL: the enrichment ratio was at most 0.25.

Turning to SYYT, the enrichment ratio is at most 0.25.

As to TLTF, the enrichment ratio is at most 0.25.

For the variant IKKS, the enrichment ratio is at most 0.25.

On to RANG, for which the enrichment ratio is at most 0.25.

Turning to RLYQ, the enrichment ratio was at most 0.25.

For the variant ICFH, the enrichment ratio is at most 0.25.

Turning to DWMQ, the enrichment ratio was at most 0.25.

As to YPHL, the enrichment ratio was at most 0.25.

Consider RHAA, for which the enrichment ratio is at most 0.25.

Consider VLLS, for which the enrichment ratio was at most 0.25.

As for RGWY, the enrichment ratio is at most 0.25.

For the variant YHNQ, the enrichment ratio was at most 0.25.

GLYE: the enrichment ratio was at most 0.25.

Consider FVVY, for which the enrichment ratio is at most 0.25.

Consider LRYY, for which the enrichment ratio is at most 0.25.

Take WDPP: the enrichment ratio is at most 0.25.

WKHC: the enrichment ratio was at most 0.25.

As for ITNW, the enrichment ratio was at most 0.25.

As for LWVF, the enrichment ratio is at most 0.25.

Consider DEFD, for which the enrichment ratio was at most 0.25.

As to MPAQ, the enrichment ratio was at most 0.25.

For GLSS, the enrichment ratio was at most 0.25.

For GYRG, the enrichment ratio is at most 0.25.

EIPE: the enrichment ratio was at most 0.25.

As to NWVA, the enrichment ratio is at most 0.25.

As for HSPD, the enrichment ratio was at most 0.25.

In the case of KGAG, the enrichment ratio was at most 0.25.

Regarding KVHM, the enrichment ratio was at most 0.25.

On to IYPV, for which the enrichment ratio was at most 0.25.

On to YQAN, for which the enrichment ratio turned out to be 0.665.

As to DITF, the enrichment ratio is at most 0.25.

Turning to HSVK, the enrichment ratio was at most 0.25.

Regarding QSME, the enrichment ratio was at most 0.25.

As for NSCS, the enrichment ratio is at most 0.25.

Regarding KRPT, the enrichment ratio is at most 0.25.

Regarding QIFM, the enrichment ratio is at most 0.25.

With MPKD, the enrichment ratio is at most 0.25.

Regarding TTDP, the enrichment ratio is at most 0.25.

In the case of QEER, the enrichment ratio is at most 0.25.

For NEKV, the enrichment ratio is at most 0.25.

As to TKNW, the enrichment ratio is at most 0.25.

On to VHTC, for which the enrichment ratio was at most 0.25.

As to GDGW, the enrichment ratio was at most 0.25.

For EIIV, the enrichment ratio is at most 0.25.

On to LIHK, for which the enrichment ratio is at most 0.25.

Turning to YCPR, the enrichment ratio is at most 0.25.

As for SRQL, the enrichment ratio is at most 0.25.

For HESC, the enrichment ratio was at most 0.25.

With KDEV, the enrichment ratio is at most 0.25.

Consider VGLI, for which the enrichment ratio stood at 10.5.

As to IADY, the enrichment ratio is at most 0.25.

Consider VTTH, for which the enrichment ratio was at most 0.25.

Consider ALWK, for which the enrichment ratio is at most 0.25.

With WFFM, the enrichment ratio is at most 0.25.

With MYAW, the enrichment ratio was at most 0.25.

On to LGDV, for which the enrichment ratio is at most 0.25.

With RLRY, the enrichment ratio is at most 0.25.

Turning to AQVK, the enrichment ratio is at most 0.25.

On to HWMM, for which the enrichment ratio is at most 0.25.

Regarding RDCK, the enrichment ratio was at most 0.25.

Consider NHPY, for which the enrichment ratio was at most 0.25.

In the case of GAIG, the enrichment ratio was at most 0.25.

On to ARRN, for which the enrichment ratio was at most 0.25.

Take NDPP: the enrichment ratio is at most 0.25.

Take FNME: the enrichment ratio is at most 0.25.

As for GSMH, the enrichment ratio came out at 3.55.

For the variant PGHK, the enrichment ratio was at most 0.25.

For NVYP, the enrichment ratio is at most 0.25.

With QGKN, the enrichment ratio is at most 0.25.

As to GHTE, the enrichment ratio is at most 0.25.

As for GAVK, the enrichment ratio is at most 0.25.

In the case of QGAL, the enrichment ratio stood at 15.6.

Consider FPPQ, for which the enrichment ratio was at most 0.25.

For RYEG, the enrichment ratio is at most 0.25.

In the case of DQEW, the enrichment ratio was at most 0.25.

Regarding DVTW, the enrichment ratio was at most 0.25.

Regarding KFAV, the enrichment ratio is at most 0.25.

As for EEIH, the enrichment ratio is at most 0.25.

As to LIPV, the enrichment ratio was at most 0.25.

Regarding FIPY, the enrichment ratio is at most 0.25.

Consider AANW, for which the enrichment ratio is at most 0.25.

As for RDIL, the enrichment ratio is at most 0.25.

FCDM: the enrichment ratio is at most 0.25.

On to SYVG, for which the enrichment ratio came out at 9.97.

Take ASIK: the enrichment ratio came to 1.16.

As to PLTC, the enrichment ratio was at most 0.25.

Consider FHMT, for which the enrichment ratio is at most 0.25.

On to NNDH, for which the enrichment ratio is at most 0.25.

As for NPLM, the enrichment ratio was at most 0.25.

As to DEYA, the enrichment ratio was at most 0.25.

As for RCWE, the enrichment ratio was at most 0.25.

With PPKG, the enrichment ratio was at most 0.25.

Turning to PVTD, the enrichment ratio was at most 0.25.

Regarding WITV, the enrichment ratio is at most 0.25.

As to QTIQ, the enrichment ratio was at most 0.25.

In the case of GGRM, the enrichment ratio is at most 0.25.

For the variant EFIV, the enrichment ratio is at most 0.25.

Take MSYM: the enrichment ratio is 10.1.

For DDLM, the enrichment ratio was at most 0.25.

Take EAPD: the enrichment ratio was at most 0.25.

Take REMH: the enrichment ratio was at most 0.25.
